For some assays here: Shown are results outside the selection of strong results, which stands elsewhere. The entries are a selection whose mix differs from that of the whole data set.
How the values were obtained:
[1] = molecular target: Tyrosine-protein kinase Fyn (Homo sapiens) (UniProt P06241); details: at 1 µM
[2] = molecular target: Tyrosine-protein kinase HCK (Homo sapiens) (UniProt P08631); details: at 0.1 µM
[3] = molecular target: Tyrosine-protein kinase HCK (Homo sapiens) (UniProt P08631); details: at 1 µM
[4] = molecular target: Insulin-like growth factor 1 receptor (Homo sapiens) (UniProt P08069); details: at 0.1 µM
[5] = molecular target: Insulin-like growth factor 1 receptor (Homo sapiens) (UniProt P08069); details: at 1 µM
[6] = molecular target: Insulin receptor (Homo sapiens) (UniProt P06213); details: at 0.1 µM
[7] = molecular target: Insulin receptor (Homo sapiens) (UniProt P06213); details: at 1 µM
[8] = molecular target: Insulin receptor-related protein (Homo sapiens) (UniProt P14616); details: at 0.1 µM
[9] = molecular target: Insulin receptor-related protein (Homo sapiens) (UniProt P14616); details: at 1 µM
[10] = molecular target: T1, Tyrosine-protein kinase ITK/TSK (Homo sapiens) (UniProt Q08881); details: at 0.1 µM
T1 sequence (whole entry): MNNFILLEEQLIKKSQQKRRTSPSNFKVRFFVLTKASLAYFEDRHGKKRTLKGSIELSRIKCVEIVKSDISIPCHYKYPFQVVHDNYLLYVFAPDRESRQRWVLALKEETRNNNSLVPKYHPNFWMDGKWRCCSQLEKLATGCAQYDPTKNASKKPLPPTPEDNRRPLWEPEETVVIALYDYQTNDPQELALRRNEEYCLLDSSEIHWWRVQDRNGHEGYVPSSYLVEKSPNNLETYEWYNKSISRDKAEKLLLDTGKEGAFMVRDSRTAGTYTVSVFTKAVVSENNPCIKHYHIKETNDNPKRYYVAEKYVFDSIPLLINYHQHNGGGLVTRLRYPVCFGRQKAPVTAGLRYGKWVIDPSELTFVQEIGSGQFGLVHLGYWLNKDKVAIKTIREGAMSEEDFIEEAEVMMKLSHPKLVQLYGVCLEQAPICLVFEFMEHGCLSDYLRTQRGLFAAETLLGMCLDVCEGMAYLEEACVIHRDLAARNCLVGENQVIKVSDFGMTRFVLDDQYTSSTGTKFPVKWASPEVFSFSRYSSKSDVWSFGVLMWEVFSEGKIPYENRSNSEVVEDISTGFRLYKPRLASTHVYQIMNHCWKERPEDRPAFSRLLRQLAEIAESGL

[11] = molecular target: T1, Tyrosine-protein kinase ITK/TSK (Homo sapiens); details: at 1 µM
[12] = molecular target: Tyrosine-protein kinase JAK1 (Homo sapiens) (UniProt P23458); details: at 0.1 µM
[13] = molecular target: Tyrosine-protein kinase JAK1 (Homo sapiens) (UniProt P23458); details: at 1 µM
[14] = molecular target: Tyrosine-protein kinase JAK2 (Homo sapiens) (UniProt O60674); details: at 0.1 µM
[15] = molecular target: Tyrosine-protein kinase JAK2 (Homo sapiens) (UniProt O60674); details: at 1 µM
[16] = molecular target: T2, Tyrosine-protein kinase JAK3 (Homo sapiens) (UniProt P52333); details: at 0.1 µM
T2 sequence (whole entry): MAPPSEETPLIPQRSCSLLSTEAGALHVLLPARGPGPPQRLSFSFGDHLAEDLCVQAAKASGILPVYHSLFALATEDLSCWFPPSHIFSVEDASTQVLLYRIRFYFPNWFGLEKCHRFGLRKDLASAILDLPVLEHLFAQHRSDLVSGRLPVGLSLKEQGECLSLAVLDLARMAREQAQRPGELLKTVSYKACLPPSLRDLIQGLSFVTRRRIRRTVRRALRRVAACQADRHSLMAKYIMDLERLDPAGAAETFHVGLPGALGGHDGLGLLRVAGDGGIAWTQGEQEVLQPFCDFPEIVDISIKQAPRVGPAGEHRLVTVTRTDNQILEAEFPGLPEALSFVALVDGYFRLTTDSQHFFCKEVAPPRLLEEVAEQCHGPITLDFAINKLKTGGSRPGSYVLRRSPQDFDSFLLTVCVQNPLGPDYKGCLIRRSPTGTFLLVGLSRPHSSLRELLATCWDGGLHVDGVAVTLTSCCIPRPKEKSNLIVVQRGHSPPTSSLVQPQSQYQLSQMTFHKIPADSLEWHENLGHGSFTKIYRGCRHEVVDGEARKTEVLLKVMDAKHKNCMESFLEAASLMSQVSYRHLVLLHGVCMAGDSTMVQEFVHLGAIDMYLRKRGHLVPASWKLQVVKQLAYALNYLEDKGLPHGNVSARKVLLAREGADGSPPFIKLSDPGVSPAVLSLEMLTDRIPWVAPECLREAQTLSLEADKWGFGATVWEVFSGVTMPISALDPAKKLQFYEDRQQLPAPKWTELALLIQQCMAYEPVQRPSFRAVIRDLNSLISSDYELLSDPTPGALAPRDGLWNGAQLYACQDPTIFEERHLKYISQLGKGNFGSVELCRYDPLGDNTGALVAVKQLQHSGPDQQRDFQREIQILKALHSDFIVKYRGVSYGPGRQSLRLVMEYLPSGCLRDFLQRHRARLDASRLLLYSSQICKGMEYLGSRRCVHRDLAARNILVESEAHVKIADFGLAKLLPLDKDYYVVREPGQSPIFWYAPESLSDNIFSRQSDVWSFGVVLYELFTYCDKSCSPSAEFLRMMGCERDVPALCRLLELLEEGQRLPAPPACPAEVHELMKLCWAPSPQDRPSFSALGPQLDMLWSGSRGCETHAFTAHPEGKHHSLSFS

[17] = molecular target: T2, Tyrosine-protein kinase JAK3 (Homo sapiens); details: at 1 µM
[18] = molecular target: Vascular endothelial growth factor receptor 2 (Homo sapiens) (UniProt P35968); details: at 0.1 µM
[19] = molecular target: Vascular endothelial growth factor receptor 2 (Homo sapiens) (UniProt P35968); details: at 1 µM
[20] = molecular target: Mast/stem cell growth factor receptor Kit (Homo sapiens) (UniProt P10721); details: at 0.1 µM;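 further: values are mean inhibition of KIT, from the GSK PKIS dataset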

Chain of UniProt P06241 (P06241 whole entry, looked up): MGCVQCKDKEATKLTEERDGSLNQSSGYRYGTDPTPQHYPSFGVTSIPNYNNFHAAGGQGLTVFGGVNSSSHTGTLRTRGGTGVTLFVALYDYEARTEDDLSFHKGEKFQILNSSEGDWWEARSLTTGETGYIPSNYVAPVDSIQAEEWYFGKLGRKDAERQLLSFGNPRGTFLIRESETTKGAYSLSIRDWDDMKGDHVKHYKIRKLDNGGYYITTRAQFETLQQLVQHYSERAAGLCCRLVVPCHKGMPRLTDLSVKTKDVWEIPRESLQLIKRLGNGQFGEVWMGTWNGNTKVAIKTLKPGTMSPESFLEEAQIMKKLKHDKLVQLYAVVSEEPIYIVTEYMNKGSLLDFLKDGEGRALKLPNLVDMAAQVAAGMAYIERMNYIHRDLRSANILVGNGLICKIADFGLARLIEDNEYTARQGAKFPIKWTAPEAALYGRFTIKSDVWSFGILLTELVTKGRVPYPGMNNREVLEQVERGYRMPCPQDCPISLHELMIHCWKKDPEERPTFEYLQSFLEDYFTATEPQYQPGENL
Chain of UniProt P08069 (P08069 whole entry, looked up): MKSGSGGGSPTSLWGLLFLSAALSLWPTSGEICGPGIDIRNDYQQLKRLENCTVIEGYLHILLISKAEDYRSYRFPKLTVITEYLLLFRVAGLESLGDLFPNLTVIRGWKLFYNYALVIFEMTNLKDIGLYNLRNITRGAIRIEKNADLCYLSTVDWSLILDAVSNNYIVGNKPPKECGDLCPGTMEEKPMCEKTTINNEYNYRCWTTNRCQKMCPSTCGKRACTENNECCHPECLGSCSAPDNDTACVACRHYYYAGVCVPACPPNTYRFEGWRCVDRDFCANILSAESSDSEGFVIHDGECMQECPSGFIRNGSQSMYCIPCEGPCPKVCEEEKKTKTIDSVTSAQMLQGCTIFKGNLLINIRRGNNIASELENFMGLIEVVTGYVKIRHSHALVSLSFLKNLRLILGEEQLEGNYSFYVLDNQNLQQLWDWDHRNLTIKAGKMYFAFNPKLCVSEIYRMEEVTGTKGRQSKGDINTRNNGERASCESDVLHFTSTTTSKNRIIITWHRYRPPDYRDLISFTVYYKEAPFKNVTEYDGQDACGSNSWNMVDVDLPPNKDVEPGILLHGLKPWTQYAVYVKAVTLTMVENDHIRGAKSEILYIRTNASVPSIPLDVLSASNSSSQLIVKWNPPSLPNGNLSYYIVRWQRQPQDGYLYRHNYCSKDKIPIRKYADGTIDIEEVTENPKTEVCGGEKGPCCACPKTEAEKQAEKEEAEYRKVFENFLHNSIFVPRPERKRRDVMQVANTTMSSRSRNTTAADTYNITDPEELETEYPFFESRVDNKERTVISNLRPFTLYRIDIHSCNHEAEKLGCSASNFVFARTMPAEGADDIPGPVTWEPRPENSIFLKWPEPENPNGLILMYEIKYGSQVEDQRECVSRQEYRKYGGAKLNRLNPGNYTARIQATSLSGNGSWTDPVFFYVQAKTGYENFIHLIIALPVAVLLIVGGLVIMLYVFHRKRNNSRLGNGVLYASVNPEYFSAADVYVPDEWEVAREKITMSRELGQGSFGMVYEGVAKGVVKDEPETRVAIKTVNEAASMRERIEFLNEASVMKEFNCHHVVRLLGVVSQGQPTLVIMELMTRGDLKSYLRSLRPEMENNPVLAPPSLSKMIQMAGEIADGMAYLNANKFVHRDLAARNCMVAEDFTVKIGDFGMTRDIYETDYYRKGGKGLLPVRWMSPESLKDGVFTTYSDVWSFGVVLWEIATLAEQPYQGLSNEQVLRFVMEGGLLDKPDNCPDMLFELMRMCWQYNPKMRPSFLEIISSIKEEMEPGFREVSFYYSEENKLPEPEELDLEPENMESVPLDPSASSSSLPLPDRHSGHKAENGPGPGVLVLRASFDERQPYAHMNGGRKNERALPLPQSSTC
Chain of UniProt P35968 (P35968 whole entry): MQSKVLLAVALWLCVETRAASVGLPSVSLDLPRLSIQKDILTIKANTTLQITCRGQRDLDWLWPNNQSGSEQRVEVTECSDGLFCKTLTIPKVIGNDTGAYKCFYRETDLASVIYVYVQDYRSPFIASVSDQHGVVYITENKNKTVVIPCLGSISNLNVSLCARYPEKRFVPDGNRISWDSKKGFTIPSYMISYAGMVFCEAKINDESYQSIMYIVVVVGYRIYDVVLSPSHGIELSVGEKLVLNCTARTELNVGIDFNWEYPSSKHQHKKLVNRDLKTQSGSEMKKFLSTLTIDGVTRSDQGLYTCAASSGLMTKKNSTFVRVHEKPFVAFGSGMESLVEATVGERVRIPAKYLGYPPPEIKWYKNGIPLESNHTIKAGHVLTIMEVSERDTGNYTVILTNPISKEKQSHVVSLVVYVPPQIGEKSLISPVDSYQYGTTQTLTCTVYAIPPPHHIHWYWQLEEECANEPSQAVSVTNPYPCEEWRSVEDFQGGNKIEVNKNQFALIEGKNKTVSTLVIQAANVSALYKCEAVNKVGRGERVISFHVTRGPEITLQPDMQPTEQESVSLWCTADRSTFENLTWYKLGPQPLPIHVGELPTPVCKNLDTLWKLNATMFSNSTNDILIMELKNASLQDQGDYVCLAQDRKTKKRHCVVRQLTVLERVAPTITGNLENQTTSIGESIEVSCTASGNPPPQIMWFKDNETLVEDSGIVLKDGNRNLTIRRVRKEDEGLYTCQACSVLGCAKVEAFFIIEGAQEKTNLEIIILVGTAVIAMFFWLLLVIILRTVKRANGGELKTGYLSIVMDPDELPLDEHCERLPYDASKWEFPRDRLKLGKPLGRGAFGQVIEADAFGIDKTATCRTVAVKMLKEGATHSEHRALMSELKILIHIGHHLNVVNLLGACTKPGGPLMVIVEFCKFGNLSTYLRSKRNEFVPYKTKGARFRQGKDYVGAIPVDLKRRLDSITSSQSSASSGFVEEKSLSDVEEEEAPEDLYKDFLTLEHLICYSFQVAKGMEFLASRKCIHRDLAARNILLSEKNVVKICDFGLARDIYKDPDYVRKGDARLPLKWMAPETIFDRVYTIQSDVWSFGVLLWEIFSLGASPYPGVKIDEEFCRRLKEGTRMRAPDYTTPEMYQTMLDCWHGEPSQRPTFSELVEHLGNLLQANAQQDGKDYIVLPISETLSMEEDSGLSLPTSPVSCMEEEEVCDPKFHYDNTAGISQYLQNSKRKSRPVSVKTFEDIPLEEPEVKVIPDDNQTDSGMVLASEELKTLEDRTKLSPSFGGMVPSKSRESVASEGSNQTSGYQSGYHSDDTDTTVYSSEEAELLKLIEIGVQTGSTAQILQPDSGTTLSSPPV
Chain of UniProt P14616 (P14616 whole entry): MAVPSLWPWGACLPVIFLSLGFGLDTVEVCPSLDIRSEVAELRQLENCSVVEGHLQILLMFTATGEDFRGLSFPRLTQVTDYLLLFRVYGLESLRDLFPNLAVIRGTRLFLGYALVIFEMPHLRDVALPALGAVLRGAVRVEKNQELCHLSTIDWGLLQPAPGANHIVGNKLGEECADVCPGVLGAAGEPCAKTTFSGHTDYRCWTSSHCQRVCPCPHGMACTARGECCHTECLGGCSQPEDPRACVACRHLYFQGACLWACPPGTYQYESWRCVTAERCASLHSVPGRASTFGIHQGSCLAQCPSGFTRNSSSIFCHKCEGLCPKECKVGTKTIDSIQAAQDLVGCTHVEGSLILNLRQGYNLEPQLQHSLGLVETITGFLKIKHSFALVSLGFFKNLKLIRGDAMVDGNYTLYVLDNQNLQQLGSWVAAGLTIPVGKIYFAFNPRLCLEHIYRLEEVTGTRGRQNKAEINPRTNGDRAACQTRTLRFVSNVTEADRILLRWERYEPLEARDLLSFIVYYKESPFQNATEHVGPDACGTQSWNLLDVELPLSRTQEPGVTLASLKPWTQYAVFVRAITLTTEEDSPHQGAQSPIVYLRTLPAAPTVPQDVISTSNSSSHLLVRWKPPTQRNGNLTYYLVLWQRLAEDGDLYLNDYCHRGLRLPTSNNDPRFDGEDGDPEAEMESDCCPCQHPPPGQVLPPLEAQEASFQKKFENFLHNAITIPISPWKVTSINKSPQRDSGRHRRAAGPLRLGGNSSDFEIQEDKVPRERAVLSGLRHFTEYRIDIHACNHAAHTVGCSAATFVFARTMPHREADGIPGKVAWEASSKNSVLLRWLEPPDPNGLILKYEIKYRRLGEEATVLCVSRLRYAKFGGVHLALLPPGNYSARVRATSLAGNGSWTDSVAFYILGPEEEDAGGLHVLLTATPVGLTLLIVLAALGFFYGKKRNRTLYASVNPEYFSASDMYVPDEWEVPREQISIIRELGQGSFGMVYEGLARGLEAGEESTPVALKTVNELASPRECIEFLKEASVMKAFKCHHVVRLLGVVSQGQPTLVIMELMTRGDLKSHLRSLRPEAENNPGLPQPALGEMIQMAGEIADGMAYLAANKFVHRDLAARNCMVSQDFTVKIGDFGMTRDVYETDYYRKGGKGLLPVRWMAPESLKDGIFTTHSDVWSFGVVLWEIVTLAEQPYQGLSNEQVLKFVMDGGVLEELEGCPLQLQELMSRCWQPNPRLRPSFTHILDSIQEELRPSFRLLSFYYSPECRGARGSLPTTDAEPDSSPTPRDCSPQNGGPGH
Chain of UniProt P08631 (P08631 whole entry, looked up): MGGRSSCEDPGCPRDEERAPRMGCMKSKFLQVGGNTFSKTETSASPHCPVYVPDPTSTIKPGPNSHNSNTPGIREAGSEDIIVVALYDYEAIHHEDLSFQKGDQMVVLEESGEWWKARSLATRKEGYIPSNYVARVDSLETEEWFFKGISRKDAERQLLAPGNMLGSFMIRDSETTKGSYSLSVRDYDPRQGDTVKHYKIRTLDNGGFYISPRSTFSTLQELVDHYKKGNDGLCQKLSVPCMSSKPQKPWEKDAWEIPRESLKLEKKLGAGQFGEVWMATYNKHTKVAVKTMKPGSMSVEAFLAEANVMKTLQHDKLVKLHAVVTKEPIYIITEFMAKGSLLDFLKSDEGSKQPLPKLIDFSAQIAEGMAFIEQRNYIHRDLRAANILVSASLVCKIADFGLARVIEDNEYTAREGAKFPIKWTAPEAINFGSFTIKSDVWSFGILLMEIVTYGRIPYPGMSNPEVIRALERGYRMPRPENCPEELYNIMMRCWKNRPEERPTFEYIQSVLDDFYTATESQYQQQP

SMILES | inhibition [1] [%] | inhibition [2] [%] | inhibition [3] [%] | inhibition [4] [%] | inhibition [5] [%] | inhibition [6] [%] | inhibition [7] [%] | inhibition [8] [%] | inhibition [9] [%] | inhibition [10] [%] | inhibition [11] [%] | inhibition [12] [%] | inhibition [13] [%] | inhibition [14] [%] | inhibition [15] [%] | inhibition [16] [%] | inhibition [17] [%] | inhibition [18] [%] | inhibition [19] [%] | inhibition [20] [%]
Cc1cccc(Oc2nccc(-c3c(-c4ccc(F)cc4)ncn3C3CCNCC3)n2)c1C | 3.47 | 3.08 | 3.84 | 0.76 | 2.84 | 0.19 | 1.99 | 2.53 | 3.84 | -0.05 | 1.92 | 3.42 | 4.81 | 1.92 | 0.38 | -2.52 | -0.16 | 1.49 | 6.62 | 5.92
CS(=O)(=O)c1ccc(Oc2nccc(-c3c(-c4ccc(F)cc4)ncn3C3CCNCC3)n2)cc1 | 2.24 | 5.46 | 4.56 | -0.62 | 1.08 | 1.11 | 4.54 | 2.47 | 2.71 | -0.93 | 0.88 | 2.94 | 4.57 | 1.37 | 0.12 | -3.03 | -2.29 | 0.99 | 3.33 | 7.07
COc1ccccc1C1=C(Nc2ccccc2)C(=O)NC1=O | 13.1 | 5.27 | 16.2 | 3.72 | 4.06 | 3.01 | 1.91 | 3.89 | 3.19 | 1.05 | 1.95 | 4.32 | 19.1 | 1.08 | 2.77 | 6.12 | 53.9 | 6.75 | 21.1 | 4.07
Fc1ccc(-c2ncn(C3CCNCC3)c2-c2ccnc(Oc3cccc(F)c3)n2)cc1 | 9.46 | 10.4 | 17.6 | 3.86 | 3.63 | 8.06 | 5.93 | 2.5 | 2.72 | 2.54 | 2.15 | 0.83 | 2.69 | 2.8 | 2.65 | -1.47 | -1.15 | 9.47 | 16 | 6.84
NC(=O)CCc1ccccc1Oc1nccc(-c2c(-c3ccc(F)cc3)ncn2C2CCNCC2)n1 | 3.29 | -2.31 | -1.38 | 0.52 | 1.3 | 2.72 | -2.14 | -3.71 | -1.88 | -0.54 | -0.59 | -4.59 | -4.73 | -1 | -1.75 | -0.4 | -0.32 | -0.88 | -0.22 | -3.53
Fc1ccc(Oc2nccc(-c3c(-c4ccc(F)cc4)ncn3C3CCNCC3)n2)cc1 | -4.65 | 5.89 | 8.22 | -7.87 | -3.24 | 5.95 | 3.26 | 2.47 | 3.33 | -1.5 | -2.45 | 0.32 | -0.55 | 2.11 | 3.3 | -3.84 | -5.11 | 5.89 | 12.3 | 3.19
O=C1NC(=O)C(c2cccc([N+](=O)[O-])c2)=C1Nc1cc(Cl)c(O)c(Cl)c1 | 0.6 | 2.54 | 0.75 | -4.01 | -0.5 | 3.24 | 1.56 | -0.61 | 0.1 | -1.3 | 0.8 | 0.71 | 4.63 | 0.39 | -0.7 | -2.64 | 24.5 | 1.21 | 8.59 | 0.51
O=C1NC(=O)C(c2ccccc2Cl)=C1Nc1cc(Cl)c(O)c(Cl)c1 | 0.23 | 1.89 | 8.37 | 1.91 | 1.79 | 0.79 | -0.85 | 2.16 | 2.59 | 0.77 | 2.36 | 3.67 | 10.6 | 0.42 | 2.34 | -1.06 | 10.1 | 4.32 | 7.66 | 26.8
Fc1ccc(-c2ncn(C3CCNCC3)c2-c2ccnc(Oc3ccc(Cl)cc3)n2)cc1 | 3.05 | 1.04 | -0.6 | -0.68 | 5.66 |  | 2.85 | -1.44 | -1.6 | 0.41 | 1.14 | 1.44 | 0.39 | -1.11 | -1.29 | 0.38 | -0.37 | 0.83 | 2 | 1.07
COc1ccccc1Oc1nccc(-c2c(-c3ccc(F)cc3)ncn2C2CCNCC2)n1 | 3.33 |  | 7.51 | -0.76 | 0.06 | 4.99 | 3.4 | 2.3 | 3.66 | 1.35 | 3.06 | 3.67 | 6.54 | 0.87 | 1.24 | -1.33 | 4.46 | 6.68 | 9.89 | 5.27
CC(C)(C)c1ccc(Oc2nccc(-c3c(-c4ccc(F)cc4)ncn3C3CCNCC3)n2)cc1 | 5.3 | 7.2 | 8.3 | -1.9 | 1.32 | 1.4 | 5.16 | 2.47 | 1.93 | -0.32 | 0.57 | 3.07 | 4.69 | 2 | 1.52 | -3.07 | -0.98 | 4.43 | 6.6 | 5.57
O=C(O)c1ccc(Oc2nccc(-c3c(-c4ccc(F)cc4)ncn3C3CCNCC3)n2)cc1 | -1.45 | 7.45 | 9.14 | 19.6 | 13.4 | 7.59 | 4.59 | 1.17 | 4.7 | 2.79 | 1.53 | 1.98 | 2.33 | 3.17 | 3.34 | 0.39 | -1.13 | 3.05 | 9 | 1.57
Fc1ccc(-c2ncn(C3CCNCC3)c2-c2ccnc(Oc3cccc(C(F)(F)F)c3)n2)cc1 | 6.48 | 7.73 | 8.66 | 3.26 | 6.06 | 4.7 | 3.65 | 3.45 | 3.68 | 0.41 | 2.14 | 7.56 | 7.58 | 1.58 | 0.05 | -4.57 | 2.36 | 5.75 | 7.38 | 6.51
O=C1NC(=O)C(c2ccccc2)=C1Nc1ccccc1 | 4.25 | 10.2 | 15.1 | 5.39 | 4.3 | 6.5 | 8.98 | 2.18 | 3.78 | 2.2 | 1.4 | 4.68 | 9.57 | 2.18 | 4.49 | -0.46 | 11.6 | 13.8 | 27.9 | 7.27

Source: ChEMBL document CHEMBL1961873, “Compounds: GSK PKIS; Assays: Nanosyn kinase panel” (2012)
